Experimental data from the supplement of paper PMC3334620.
In all, about 33,000 sequences were measured (“E-score (-0.5 to 0.5)”: median about -0.043, highest 2% from about 0.37 on). This is one part of the list.

What follows are sequences tested against T1, Upc2 (UniProt Q12151) (assay: PBM E-score (8-mer binding enrichment) (E-score (-0.5 to 0.5)); higher = stronger / more preferred TF binding; most listed sequences are background and not binding sites). Details: protein concentration: 200 nM; construct: GST-full length.
T1 sequence: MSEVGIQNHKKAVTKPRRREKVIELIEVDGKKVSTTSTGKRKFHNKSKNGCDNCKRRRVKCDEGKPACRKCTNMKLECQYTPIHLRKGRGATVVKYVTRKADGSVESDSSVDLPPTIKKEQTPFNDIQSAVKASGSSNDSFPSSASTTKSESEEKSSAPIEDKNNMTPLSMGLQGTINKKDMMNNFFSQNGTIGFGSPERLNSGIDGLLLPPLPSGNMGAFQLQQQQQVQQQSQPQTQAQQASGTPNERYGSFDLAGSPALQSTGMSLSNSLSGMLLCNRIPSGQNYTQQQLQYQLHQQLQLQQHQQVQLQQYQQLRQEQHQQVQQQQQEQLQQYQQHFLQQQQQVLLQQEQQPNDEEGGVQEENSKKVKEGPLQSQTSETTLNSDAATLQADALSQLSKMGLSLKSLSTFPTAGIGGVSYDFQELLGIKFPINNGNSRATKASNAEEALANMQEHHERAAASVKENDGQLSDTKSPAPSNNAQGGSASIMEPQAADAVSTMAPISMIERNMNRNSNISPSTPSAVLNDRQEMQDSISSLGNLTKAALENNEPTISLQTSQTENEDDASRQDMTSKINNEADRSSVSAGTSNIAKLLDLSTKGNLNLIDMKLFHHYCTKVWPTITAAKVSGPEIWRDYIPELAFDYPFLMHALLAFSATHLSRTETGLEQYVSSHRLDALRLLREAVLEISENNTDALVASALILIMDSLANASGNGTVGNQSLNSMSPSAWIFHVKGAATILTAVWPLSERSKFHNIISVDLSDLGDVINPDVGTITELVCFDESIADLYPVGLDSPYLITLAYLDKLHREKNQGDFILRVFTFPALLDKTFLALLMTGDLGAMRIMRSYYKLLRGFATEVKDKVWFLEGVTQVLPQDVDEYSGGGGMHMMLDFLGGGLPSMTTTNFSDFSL
Procedure: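 Universal 'all 10-mer' protein binding microarrays (Agilent AMADID 015681) probed with GST-tagged S. cerevisiae TFs (full-length or DBD) made by in vitro transcription/translation (PURExpress), about 100-200 nM. Bound TF was detected with fluorescent anti-GST. Each ungapped 8-mer (which stands for itself and its reverse complement) is scored by the PBM enrichment score (E-score), a modified Wilcoxon-Mann-Whitney statistic from -0.5 to +0.5, computed with the Universal PBM Analysis Suite. Scale: above 0.35 generally sequence-specific binding.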

| Sequence | PBM E-score |
| --- | --- |
| CGGCTTCC | -0.208 |
| AACCCTCA | -0.0288 |
| GCGCTAGC | -0.0898 |
| ATAGTAAT | 0.0924 |
| AGACCAGG | -0.122 |
| AGTTACAA | -0.0507 |
| CGTCCTAC | -0.234 |
| TCCTTACA | -0.231 |
| GCCACGCA | -0.0506 |
| AAGTGTGA | -0.21 |
| ATCTGGAA | -0.0378 |
| CCGTACAC | 0.382 |
| CAAGGGGG | -0.129 |
| GTGCTAGA | -0.281 |
| GGAAAAAC | 0.0964 |
| GGCATTCA | -0.117 |
| GCAGTGAC | -0.261 |
| CACGCGTA | 0.248 |
| CTGTACCA | -0.134 |
| AATGCTGC | 0.0736 |
| ATGACGTG | -0.203 |
| ACGAAGCC | 0.308 |
| GACCACGA | 0.00727 |
| TCTATGCA | -0.2 |
| ACACTAAG | 0.0874 |

| Sequence | PBM E-score |
| --- | --- |
| GAACATCC | -0.0253 |
| CCCATACC | 0.0537 |
| AACTAGAT | -0.109 |
| GACGGCGC | -0.0257 |
| AGCGCAAA | 0.0493 |
| AGAATACT | -0.0804 |
| AACTAGTA | -0.0317 |
| AAGTGTCC | -0.117 |
| CAACCAGA | 0.0869 |
| AGCCTTGG | -0.285 |
| CCCAGAAG | -0.225 |
| CGAGGCTA | 0.11 |
| CAAGTAAC | 0.00235 |
| CAACTAAA | -0.0762 |
| AACGAGTT | 0.399 |
| CCCATTGA | -0.173 |
| GCCATCAC | -0.158 |
| ATGTATGA | -0.0355 |
| GCACTCTA | -0.0835 |
| CTCGTTAA | 0.466 |
| AATTCGGA | 0.136 |
| GGCGTCCA | -0.398 |
| CAACGTTG | 0.167 |
| ATCTTTGC | 0.0667 |
| ACGTTTAA | 0.407 |

| Sequence | PBM E-score |
| --- | --- |
| AGTCAAAC | 0.181 |
| GCAAACAA | 0.00753 |
| ACGGGTAT | 0.212 |
| CAACATCG | -0.00483 |
| GGCAACTA | -0.245 |
| ACATAGGG | -0.164 |
| GCTTTACA | 0.136 |
| CGGATCAG | -0.014 |
| GATAAACA | -0.144 |
| CTTGATAC | -0.0118 |
| GAGCACTC | 0.0756 |
| GGACACCA | -0.23 |
| CAGGCGCC | -0.151 |
| GCCATAAC | -0.187 |
| AAGCGCAC | 0.0992 |
| CTTCCACA | -0.103 |
| AGGATTAC | 0.0091 |
| ATCGCCAC | -0.00953 |
| CCTAAAAC | 0.0327 |
| TACTCATA | -0.0136 |
| ATGTTAAG | -0.0242 |
| ACGAGCTA | 0.394 |
| GAAATCCC | -0.0323 |
| GGTCTGGA | -0.167 |
| AAACTTTG | -0.00722 |

| Sequence | PBM E-score |
| --- | --- |
| AACGAAAC | 0.37 |
| GGCGTCAC | 0.0542 |
| GGGCCCTA | -0.171 |
| ACGATCAG | 0.255 |
| CTGAGCCA | -0.287 |
| TGAAAGCA | -0.0222 |
| AACATCTC | -0.16 |
| GCTCCAAC | -0.0332 |
| GTAACCTA | 0.0311 |
| AGGAGCGG | -0.341 |
| AAGGCCAC | -0.22 |
| CCACCAGC | 0.0943 |
| GACGCCGA | 0.0196 |
| GCCGGGAC | -0.295 |
| CCCCATTC | -0.0233 |
| GAAACTGC | -0.0568 |
| CGAGTTCC | 0.115 |
| TAATCATA | -0.00869 |
| ATGCCACA | -0.272 |
| GGAGGTAC | 0.00952 |
| TCCCGCGA | 0.0149 |
| ACTTATGC | 0.0622 |
| GAGATATC | 0.0314 |
| CGCCGTAG | 0.0712 |
| CAAAACTC | -0.0729 |

| Sequence | PBM E-score |
| --- | --- |
| GGCGAACC | -0.0689 |
| GCCCGCTA | 0.0529 |
| CGAATTAC | 0.162 |
| TGATGACA | -0.108 |
| AGGGTGCG | -0.158 |
| CGGGTCCA | -0.194 |
| CCGCGCGG | 0.107 |
| ACAATACA | 0.0574 |
| ACCAATAC | 0.0919 |
| TTAACAAA | 0.224 |
| CGATACAA | 0.0776 |
| AGAGAGCA | -0.067 |
| CACAAATA | -0.0613 |
| GCGTCGCA | 0.19 |
| CCCAGGAG | -0.182 |
| CCAGGGCA | -0.19 |
| ACGGGATA | 0.156 |
| ATAAGGTC | 0.00487 |
| AGTACTTA | 0.0953 |
| AGCCAACG | -0.0177 |
| AGCGAACT | 0.0961 |
| GACATATC | -0.0405 |
| CAGAACAA | 0.059 |
| CCTCGAGC | 0.0464 |
| AATGACCA | -0.157 |

| Sequence | PBM E-score |
| --- | --- |
| CGTGCACA | -0.156 |
| AGTTCGAC | -0.161 |
| TCGGAAAA | 0.234 |
| GCTCCGCA | -0.119 |
| ATGCATTC | 0.0394 |
| CCCTCGAA | -0.0244 |
| GCAACTTA | 0.0374 |
| ACCACTAC | -0.0851 |
| GTGCTAAA | 0.0334 |
| CATAGCCG | -0.286 |
| AACAGCAT | -0.0641 |
| ATAGGGCA | -0.339 |
| CCATACCG | -0.0343 |
| TATGAATA | 0.0594 |
| AGTACCTA | -0.109 |
| AGTTAACA | -9e-05 |
| GTAAACAC | 0.277 |
| CACTTTCA | -0.151 |
| GCATGACC | -0.263 |
| GACCGTCA | -0.286 |
| CAGCCGGA | -0.0451 |
| AATACTGC | 0.0614 |
| AGCTCGAA | 0.0873 |
| CAATGGCG | -0.141 |
| TCGAGGCA | -0.015 |

| Sequence | PBM E-score |
| --- | --- |
| GTGCCGCA | -0.0154 |
| TCATTCCA | -0.0256 |
| TCGAATCA | -0.0776 |
| GCCCACAA | -0.0313 |
| ACGGCACC | 0.199 |
| ACTCCTTA | -0.0363 |
| CATTCCTA | -0.0331 |
| AAGTATAA | 0.102 |
| CAGTTACC | -0.0817 |
| GATAAATC | 0.0802 |
| ACGGGACT | 0.142 |
| ACCTAAGT | 0.00773 |
| ATTGTCAA | 0.00499 |
| AACTAACC | 0.168 |
| CGAGAGCC | 0.0411 |
| GAAATGGC | 0.0293 |
| AAAAGCGC | -0.108 |
| CGTAGGGC | 0.121 |
| AATTGACA | -0.115 |
| CAGCGGTA | 0.00894 |
| CATAGAAG | -0.219 |
| ACGCCGCA | 0.158 |
